Structures are written as SMILES. Among all 48,000 compounds or so, about 1,200 (2.5%) were called active. Inconclusive results (about 2%) are left out.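 How the source made its calls: active means activation of at least 60% and not above a set upper limit (about 1 call in 100 departs from these limits); inconclusive means activation of 40% to 60%, or above that upper limit; inactive means activation under 40%.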 The list shows a part of the results.

This test has as its target Probable G-protein coupled receptor 32 (Homo sapiens) (UniProt O75388). Nature of the test: qHTS for Agonists of Human Resolvin D1 Receptor DRV1. Particulars: CHO-K1 GPR32 beta-arrestin PathHunter luminescence, 90 min; at 76.9 µM; stronger effect = higher value; zero percent set by DMSO-only wells. The procedure, abridged: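 Beta-arrestin recruitment read-out: luminescence from complemented beta-Gal in CHO-K1 GPR32 PathHunter cells, measured 1 h after detection reagent at ambient temperature following 90 min compound exposure at 37 °C; DMSO served as basal (EC0) control.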
UniProt O75388, sequence (O75388 whole entry, looked up): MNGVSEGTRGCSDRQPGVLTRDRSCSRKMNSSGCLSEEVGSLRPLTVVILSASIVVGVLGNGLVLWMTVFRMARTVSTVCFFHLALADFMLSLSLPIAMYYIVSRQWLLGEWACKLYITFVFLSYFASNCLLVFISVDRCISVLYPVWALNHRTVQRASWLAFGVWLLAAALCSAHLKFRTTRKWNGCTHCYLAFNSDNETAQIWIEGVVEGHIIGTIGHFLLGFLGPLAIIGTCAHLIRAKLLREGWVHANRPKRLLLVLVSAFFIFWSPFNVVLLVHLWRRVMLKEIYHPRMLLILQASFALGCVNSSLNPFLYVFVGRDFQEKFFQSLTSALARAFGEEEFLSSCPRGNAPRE
A general note: Quantitative high-throughput screening tests each substance at several concentrations.
Regarding `COc1ccccc1NC(=O)Cn1c(=O)n(CC2CCC(C(=O)NCCc3ccccc3)CC2)c(=O)c2ccccc21` (stereo not given), the activation was inactive: -17.5%.
`CCOC(=O)CSc1nc2sc3c(c2c(=O)n1-c1ccc(OC)cc1)CC(C(C)C)OC3` (stereo not given): the activation is inactive: 5.81%.
With `Cc1cc(NC(=O)c2cc(-c3ccc(Cl)c(Cl)c3)on2)n(-c2ccccc2)n1`, the activation was inactive: -4.3%.
Regarding `CCOc1ccc(CNC(=O)C2CCN(C(=O)N3CC(CC)Oc4ccc(C)cc43)CC2)cc1OC` (stereo not given), the activation is inactive: -19.2%.
In the case of `CCOC(=O)N1CCc2c(sc3c2C(=O)NC(c2ccc(C(=O)OC)cc2)N3)C1` (stereo not given), the activation is inactive: -2.46%.
As for `Cc1nnc(SCC(=O)Nc2ccc(N(C)C)cc2)[nH]c1=O`, the activation is inactive: 15.5%.
With `CCc1ccc(NC(=O)Cn2c(=O)n(CCCC(=O)NCCc3ccc(OC)c(OC)c3)c(=O)c3ccccc32)cc1` the figure was inactive: 28.6%; with `COCCNC(=O)CN1C(=O)COc2ccc(S(=O)(=O)N3CCCC3)cc21`, inactive: 8.63%.
Regarding `CCN(CC)CCOC(=O)c1ccc(NC(=O)c2cc3cc(OC)ccc3oc2=O)cc1`, the activation is inactive: 13.8%.
In the case of `CCOc1ccc(Sc2cc(C(=O)NCc3ccccc3Cl)c3ccccc3n2)cc1`, the activation was inactive: -19.2%.
The result for `Cc1ccccc1NC(=O)CCn1nc(-c2ccccc2)c2ccccc2c1=O` reads inactive: -16.5%; that for `CCCCNC(=O)CN1C(=O)c2c(c3ccccc3n2C)C1c1ccc(OC)cc1` (stereo not given), inactive: -15.9%.
Turning to `CC(C)(C)C(=O)Nc1nc2nc(-c3ccccc3)cc(=O)n2[nH]1`, the activation is inactive: -6.2%.
Consider `C[C@]12C=CC(=O)C=C1CC[C@@H]1C2=CC[C@]2(C)[C@@H](C(=O)CN3CCN(c4cc(N5CCCC5)nc(N5CCCC5)n4)CC3)CC[C@@H]12`, for which the activation was inactive: -31.1%.
The result for `COc1ccc(Nc2nc(Nc3ccc(OC)cc3OC)nc(N3CCOCC3)n2)c(OC)c1` reads inactive: -27.4%; that for `Cc1ccc2oc(-c3cccc(NC(=O)c4ccc(N5CCC(C)CC5)c([N+](=O)[O-])c4)c3)nc2c1`, inactive: -10.1%; that for `C=CCn1c(=O)n([C@@H]2O[C@H](CO)[C@@H](O)[C@H]2O)c2nc(N)[nH]c(=O)c21`, inactive: 27.9%.
With `Cc1oc(-c2ccc(Cl)cc2)nc1CN1CCCC(C(=O)NCCc2ccccc2)C1` (stereo not given) the figure was inactive: 16.4%; with `CCc1cccc(C)c1NC(=O)c1cc(S(=O)(=O)N2CCC3(CC2)OCCO3)ccc1F`, inactive: 11.4%; with `COc1ccc(C2CC(=O)c3cc(-c4nc(-c5cccc([N+](=O)[O-])c5)cs4)c(=O)n(-c4ccc(F)cc4)c3C2)cc1` (stereo not given), inactive: 0.0821%.
On to `C[C@]12C=CC(=O)C=C1CC[C@@H]1[C@@H]2C(=O)C[C@@]2(C)[C@H]1CC[C@]2(O)C(=O)CO`, for which the activation was inactive: -18.8%.
With `Cc1ccc(S(=O)(=O)N2CCCc3cc(NS(=O)(=O)c4ccc(C)c(C)c4)ccc32)cc1` the figure was inactive: -19.8%.
The result for `CC(=O)c1ccc(NC(=O)CSc2c(C(C)C)cnc3c2c(=O)n(C)c(=O)n3C)cc1` reads inactive: -25%.
In the case of `COC(=O)c1ccn(-c2nc(-c3ccc(Cl)cc3)cc(C(F)(F)F)n2)n1`, the activation was inactive: -6.5%.
Consider `O=C(Cn1c(=O)n(Cc2ccc(C(=O)NCc3ccc4c(c3)OCO4)cc2)c(=O)c2ccccc21)Nc1ccc(F)cc1F`, for which the activation was inactive: -7.26%.
For `COc1ccc(C2(N3CCN(c4cccc(C)c4C)CC3)C(=O)c3ccccc3C2=O)cc1`, the activation is inactive: -9.51%.
`Cc1c(-c2nnc(SCC(=O)Nc3ccc(Br)cc3)o2)nnn1-c1ccc(F)cc1`: the activation was inactive: 19.5%.
On to `O=C(CS(=O)(=O)c1cccc2nsnc12)N1CCN(c2ccccc2)CC1`, for which the activation was inactive: -4.72%.
As to `COc1ccc(-c2nc(C)c(CCNS(=O)(=O)c3ccc(F)cc3)s2)cc1OC`, the activation is inactive: 26.5%.
With `Nc1ncnc2nc(-c3ccc(N4CCOCC4)nc3)cc(-c3cccc(Br)c3)c12` the figure was inactive: 3.47%.
For the compound `CC(C)c1ccc(CN(Cc2ccco2)c2cnc(S(C)(=O)=O)nc2C(=O)Nc2ccccc2)cc1`, the activation is inactive: -6.79%.
Take `CCCCNC(=O)C1CCN(c2nc3ccc(C)cc3[nH]2)CC1`: the activation is inactive: -10.5%.
Take `COC(=O)c1ccccc1NC(=O)c1cn2c3c(ccc(Cl)c3c1=O)OC(C)C2` (stereo not given): the activation is inactive: 10.9%.
With `NC(=O)CSc1oc(-c2cccs2)nc1S(=O)(=O)c1ccc(Br)cc1`, the activation is inactive: -1.93%.
With `Cc1cccc(C(=O)Nc2ccc(C(=O)OCc3cc(=O)n4c(C)csc4n3)cc2)c1` the figure was inactive: -3.62%; with `CCCCOc1cccc(C(=O)N(Cc2ccc(Br)o2)C2CCS(=O)(=O)C2)c1` (stereo not given), inactive: -31%; with `Cc1cc(F)ccc1NC(=O)C1CCN(S(=O)(=O)c2ccc3c(c2)CCCC(=O)N3)CC1`, inactive: -0.241%.
For `Cc1ccccc1Cn1cc(CCC(=O)NCc2cccc(Br)c2)c2ccccc21`, the activation was inactive: -21.9%.
As to `O=C(c1cnc2c(c1)COc1ccccc1-2)c1ccccc1O`, the activation is inactive: 41.7%.
With `COC(=O)c1ccc(NC(=O)N2CCN(c3nnc(C)c4c(C)n(-c5ccccc5)nc34)CC2)cc1` the figure was inactive: -11%; with `O=C(Cn1c(=O)c(C(F)(F)F)nc2ccccc21)Nc1ccc(Br)cc1F`, inactive: 1.5%; with `COc1ccc(S(=O)(=O)N2CCN(c3ccccc3)CC2)cc1-c1noc(C)n1`, inactive: -10.4%.
With `CC(C)c1cnc2c(c1SCC(=O)c1ccccc1)c(=O)n(C)c(=O)n2C` the figure was inactive: -27%.
On to `O=C(NCc1ccccc1)c1ccc2c(c1)N(Cc1ccccc1)C(=O)c1ccccc1S2(=O)=O`, for which the activation is inactive: -29%.
The result for `CC(C)(C)NC(=O)CSc1nc(-c2ccc(F)cc2)cc(C(F)(F)F)n1` reads inactive: 11.4%.
The result for `COc1ccc(S(=O)(=O)NCC(c2ccco2)N2CCN(c3ccc(F)cc3)CC2)cc1` (stereo not given) reads inactive: -31.6%; that for `Cc1cc(C)cc(NC(c2nnc(-c3cccc(F)c3)o2)c2ccc(F)cc2Cl)c1` (stereo not given), inactive: -25.6%.
For the compound `COc1ccc(Cc2nc3ccc(C(=O)NCCc4ccc(OC)c(OC)c4)cc3o2)cc1`, the activation is inactive: -23.5%.
Regarding `Nc1ccc(C(=O)Nc2ccccc2N)cc1`, the activation is inactive: 6.98%.
For `CCOC(=O)Cn1c(=O)n(C2CCCCC2)c2nc(-c3ccc(OC)cc3)nc(C(N)=O)c21`, the activation was inactive: -7.63%.

The record behind these values is PubChem BioAssay AID1346428 (National Center for Advancing Translational Sciences (NCATS), 2018).
